Assay results taken from the supplement of paper PMC3334620.
The full ranking holds about 33,000 sequences; the median of “E-score (-0.5 to 0.5)” is about -0.017, and the highest 2% start at about 0.3. This is one part of the list.

Biological target: T1, Sut1 (UniProt P53032)
T1 sequence: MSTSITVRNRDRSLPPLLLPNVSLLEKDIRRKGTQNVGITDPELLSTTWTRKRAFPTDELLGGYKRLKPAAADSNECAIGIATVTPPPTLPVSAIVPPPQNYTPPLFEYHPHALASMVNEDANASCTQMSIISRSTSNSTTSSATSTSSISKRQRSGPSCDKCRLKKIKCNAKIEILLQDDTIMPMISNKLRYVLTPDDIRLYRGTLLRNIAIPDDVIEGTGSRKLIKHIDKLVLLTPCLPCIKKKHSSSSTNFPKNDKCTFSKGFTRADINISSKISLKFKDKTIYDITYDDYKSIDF
Test: PBM E-score (8-mer binding enrichment) (E-score (-0.5 to 0.5)); higher = stronger / more preferred TF binding; most listed sequences are background and not binding sites
Settings: protein concentration: 200 nM; construct: GST-full length
How it was run: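 E-scores (a modified Wilcoxon-Mann-Whitney statistic) were assigned by the Universal PBM Analysis Suite to every ungapped eight-base word pooled with its reverse complement. The input came from universal all-10-mer Agilent arrays made double-stranded by primer extension and probed with GST-tagged yeast transcription factors at about 100-200 nM. Fluorescent anti-GST detected bound protein, and masliner normalised the scans.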

Going from ATAAATCG to GAGTCGAC, the “PBM E-score” value falls from 0.2 to 0.0275.

Compared with ACATAGTC, AACCCGCA is lower in “PBM E-score” value: 0.114 for the first, -0.0898 for the second.

Compared with AGGCTTGG, CATACAAG is higher in “PBM E-score” value: -0.148 for the first, -0.00318 for the second.

First: CCGGAAAC
Second: GGTCAGAA
The “PBM E-score” value of the first is higher: 0.245 for the first, 0.0293 for the second.

Going from GGAATTAA to ATGTGTTG, the “PBM E-score” value falls from 0.285 to 0.092.

Compared with CTCCGAAC, CCATGAGC is lower in “PBM E-score” value: 0.468 for the first, -0.221 for the second.

Compared with ACTCTCAG, GACAAGCC is lower in “PBM E-score” value: -0.0536 for the first, -0.141 for the second.

Going from CGTCGACA to ACCCTGCT, the “PBM E-score” value falls from -0.139 to -0.299.

Compared with CTTTCCTA, AGGTTGGA is higher in “PBM E-score” value: -0.147 for the first, 0.0312 for the second.

Compared with CTGTTGAA, ATCGTGTG is lower in “PBM E-score” value: 0.127 for the first, 0.039 for the second.

Compared with ACTCAAGG, GTACAAAA is higher in “PBM E-score” value: -0.0836 for the first, 0.219 for the second.

Going from TACCCCGA to CAACGTTC, the “PBM E-score” value falls from 0.324 to -0.0199.

Compared with ATTTCACC, CGTCAATC is lower in “PBM E-score” value: 0.00801 for the first, -0.0752 for the second.

First: CAGTTGTA
Second: ATATCCCA
The “PBM E-score” value of the first is lower: 0.00162 for the first, 0.108 for the second.

First: AGAAGTAG
Second: ATTTTGGC
The “PBM E-score” value of the first is lower: -0.127 for the first, 0.0477 for the second.

Going from ACAGGCCA to ACTGGTTA, the “PBM E-score” value rises from -0.0945 to 0.134.

Going from ACTTTAAC to AGTGTAAG, the “PBM E-score” value falls from 0.0923 to 0.0646.

First: CCCTAAGG
Second: ACAAGGGC
The “PBM E-score” value of the first is higher: -0.15 for the first, -0.184 for the second.

Going from AGCGGAGA to GATTGCGC, the “PBM E-score” value falls from 0.325 to 0.0894.

Going from TCAGTCAA to ACAGCCAA, the “PBM E-score” value rises from -0.0126 to 0.0381.

Going from GGCGACAA to CGCGGAAC, the “PBM E-score” value rises from -0.163 to 0.118.

First: CAGGGCGC
Second: AATCTCCT
The “PBM E-score” value of the first is lower: -0.275 for the first, 0.147 for the second.

Compared with AGGCGACG, GGGGACCC is lower in “PBM E-score” value: -0.0162 for the first, -0.275 for the second.

Going from CCCGTGAC to ACTATATC, the “PBM E-score” value rises from -0.156 to 0.209.

First: GTCGGATA
Second: CGAGGCCA
The “PBM E-score” value of the first is higher: 0.143 for the first, 0.0156 for the second.

Going from ATGGAGAG to CATAGCTA, the “PBM E-score” value falls from 0.0475 to -0.182.

First: ATGCAAAT
Second: ATGAGTGC
The “PBM E-score” value of the first is higher: 0.0646 for the first, -0.0473 for the second.

First: CTAAAAAA
Second: ACAACAGG
The “PBM E-score” value of the first is higher: 0.233 for the first, -0.131 for the second.

Compared with GATTTTAA, AACCATCA is lower in “PBM E-score” value: 0.253 for the first, 0.209 for the second.

Going from ATTCATAC to AGTACTAC, the “PBM E-score” value falls from 0.21 to 0.155.

First: GCTCTACA
Second: GGCTGGCA
The “PBM E-score” value of the first is higher: -0.121 for the first, -0.337 for the second.

Compared with AGAGAAGC, AAAATCAG is higher in “PBM E-score” value: -0.0428 for the first, 0.0609 for the second.

Compared with CTCTTATC, CTTATCAA is lower in “PBM E-score” value: 0.284 for the first, 0.192 for the second.

Compared with ATGGATTG, CAAGGTAA is lower in “PBM E-score” value: 0.139 for the first, 0.0319 for the second.

First: CATACCGG
Second: ATATTCAT
The “PBM E-score” value of the first is lower: 0.00242 for the first, 0.187 for the second.

Compared with ACGATTGG, CCATCTCG is lower in “PBM E-score” value: 0.0321 for the first, -0.104 for the second.

Going from CTGGTGTA to ATGCCTTC, the “PBM E-score” value falls from -0.121 to -0.251.

Going from AGGGAGCG to AGCGGTTA, the “PBM E-score” value rises from -0.26 to -0.0642.

First: ACACCTAC
Second: ACCGACCA
The “PBM E-score” value of the first is higher: -0.0558 for the first, -0.0782 for the second.

Compared with ATCAAGGA, AAAGATCA is higher in “PBM E-score” value: 0.0319 for the first, 0.0373 for the second.

Compared with CCTTTCCC, ATGTAAAA is higher in “PBM E-score” value: -0.0285 for the first, 0.218 for the second.

Going from CCGTTGAC to ACCGTCTC, the “PBM E-score” value rises from -0.147 to -0.0585.

Compared with CGCTACAG, AAAGCGAT is higher in “PBM E-score” value: 0.00067 for the first, 0.101 for the second.

Compared with ATGCTACC, TCCGGTAA is higher in “PBM E-score” value: 0.0202 for the first, 0.384 for the second.

Compared with GAGAAAAA, CACCAAGG is lower in “PBM E-score” value: 0.252 for the first, -0.12 for the second.

Compared with GGAAAAAA, CAAGACGC is lower in “PBM E-score” value: 0.229 for the first, -0.124 for the second.

First: ATTCGATA
Second: AGAAGCAT
The “PBM E-score” value of the first is higher: 0.264 for the first, 0.128 for the second.

First: AATACCTA
Second: TCAAGAAA
The “PBM E-score” value of the first is lower: 0.223 for the first, 0.316 for the second.

Compared with CGTAATGC, AGGAAAAA is higher in “PBM E-score” value: 0.0921 for the first, 0.11 for the second.

Going from ACCCTAAA to TATTAGAA, the “PBM E-score” value rises from -0.0342 to 0.239.

Compared with GCCGCAAA, GTATACTA is lower in “PBM E-score” value: -0.078 for the first, -0.155 for the second.

Compared with ACCATGGG, GCAGGTAC is higher in “PBM E-score” value: -0.238 for the first, -0.132 for the second.

First: CCCATGGG
Second: ACGATTTC
The “PBM E-score” value of the first is lower: -0.2 for the first, 0.155 for the second.

Compared with AGATCGAT, AGAAAATC is higher in “PBM E-score” value: -0.104 for the first, 0.113 for the second.

Going from CAGCGGGA to AGTCTCTG, the “PBM E-score” value rises from -0.267 to -0.12.

Going from ATCAAGTC to ACACACCG, the “PBM E-score” value falls from 0.141 to -0.0964.

Compared with CAGACGTC, CAGAAATC is higher in “PBM E-score” value: -0.096 for the first, 0.0914 for the second.

First: CGCGAATA
Second: ACCCACAG
The “PBM E-score” value of the first is higher: 0.0379 for the first, -0.239 for the second.

First: CGATTTTA
Second: CCGTGAAC
The “PBM E-score” value of the first is higher: 0.162 for the first, -0.137 for the second.

Going from CCTGGTTC to CTATGTCC, the “PBM E-score” value rises from -0.07 to 0.127.

Compared with AAGGTTCT, ACGATCTC is lower in “PBM E-score” value: 0.146 for the first, -0.0655 for the second.

First: ATACGGAC
Second: AAGAAAAC
The “PBM E-score” value of the first is higher: 0.374 for the first, 0.237 for the second.

First: ATATCGAA
Second: AACAGGCA
The “PBM E-score” value of the first is higher: 0.128 for the first, -0.112 for the second.

Compared with CTTACACA, GTCACCCA is lower in “PBM E-score” value: 0.012 for the first, -0.273 for the second.

First: GAGCGCCA
Second: CGTTTAGA
The “PBM E-score” value of the first is lower: -0.124 for the first, 0.0198 for the second.

First: CACCGCAG
Second: ACTCCATA
The “PBM E-score” value of the first is lower: -0.087 for the first, 0.128 for the second.

Compared with CGTCGACC, ATAGCCGC is higher in “PBM E-score” value: -0.0962 for the first, -0.0688 for the second.

Going from ACGGCGCG to CACGTTGG, the “PBM E-score” value falls from -0.1 to -0.114.

Compared with GTAGCAAC, AAGACCAG is higher in “PBM E-score” value: -0.00622 for the first, 0.0464 for the second.

First: AACTACGC
Second: GTCCACAC
The “PBM E-score” value of the first is higher: 0.0519 for the first, 0.00775 for the second.

Going from CTGGAATA to ACTGAGTA, the “PBM E-score” value falls from 0.101 to -0.0453.

Going from GATATATC to CGTCTGCC, the “PBM E-score” value falls from 0.183 to -0.166.

First: GCTCGGAC
Second: ATTCTTGC
The “PBM E-score” value of the first is higher: 0.365 for the first, 0.122 for the second.

First: CGTGGAAA
Second: ACAGCAAA
The “PBM E-score” value of the first is higher: 0.153 for the first, 0.127 for the second.

First: ACATACAT
Second: CTTGCTCA
The “PBM E-score” value of the first is higher: 0.19 for the first, -0.319 for the second.

Going from AATATGGG to AGAGCATA, the “PBM E-score” value rises from -0.186 to -0.153.

Compared with CGCAGCAC, ATAATGCA is higher in “PBM E-score” value: -0.0502 for the first, 0.0682 for the second.

Compared with AATCCCGA, ATAGTTCA is lower in “PBM E-score” value: 0.138 for the first, 0.098 for the second.

Going from ACATTTCA to GCCGGAAC, the “PBM E-score” value rises from 0.113 to 0.146.

First: AGTTGCAT
Second: ACACCCGG
The “PBM E-score” value of the first is higher: 0.0216 for the first, -0.0673 for the second.

Going from GGGGACTA to CTGGTACA, the “PBM E-score” value rises from -0.185 to -0.111.

Going from GGGAACCA to GAAAGGCC, the “PBM E-score” value rises from -0.211 to -0.077.

Compared with CAAAACAG, AAGCCGCA is lower in “PBM E-score” value: 0.115 for the first, -0.0693 for the second.

Compared with ATAGCAGA, GCTCTCAA is higher in “PBM E-score” value: 0.0126 for the first, 0.057 for the second.

Compared with AGCCAAGC, GAAGTCGA is higher in “PBM E-score” value: -0.147 for the first, 0.0953 for the second.

Going from AACTGTTG to GATTCCCC, the “PBM E-score” value falls from -0.0735 to -0.15.
